For one substance, EGFP silencing results are on record in patent US20230287391A1, “KRAB FUSION REPRESSORS AND METHODS AND COMPOSITIONS FOR REPRESSING GENE EXPRESSION” (THE GOVERNING COUNCIL OF THE UNIVERSITY OF TORONTO, priority 2020, published 2023).

The assay concerns TetO array downstream of an EGFP expression cassette integrated in the AAVS1 locus. The assay can be described thus: Inducible repression system (ABI-dCas9 / KRAB-PYL1) in K562 reporter cells. Particulars: 100 μM abscisic acid, 5 and 14 days; compared to KOX1-PYL1. As for the experimental part:
The performance of the ZIM3 KRAB repressor was tested in an inducible repression system as described in [14]. K562 reporter cells were transduced with ABI-dCas9 and a single gRNA targeting the TetO array downstream of an EGFP expression cassette integrated in the AAVS1 locus. These cells were then infected at high multiplicity of infection with lentivirus containing either ZIM3 or KOX1 KRAB domains fused to PYL1. After two rounds of selection, cells were treated with 100 μM of abscisic acid and EGFP levels after 5 and 14 days of recruitment were measured by flow cytometry (FIG. 7). […] Additional methods are as described in Example 4.

As to “ZIM3 KRAB-PYL1: ZIM3 KRAB domain fused to PYL1 (SEQ ID NO: 16), recruited to ABI1-dCas9 by abscisic acid”, the EGFP silencing result is listed as “superior silencing”.
